Experimental data as given in article PMC4336329 (PLoS ONE, 2015).
The whole screen tested about 310,000 compounds, of which about 2,200 (0.71%) showed an effect of 50% or more. Effects have a minus sign here. The list shows a part of the results.

target: human ether-à-go-go-related gene (hERG) potassium channel (human, UniProt Q12809); assay: primary screen, population patch clamp on CHO cells stably expressing hERG
Sequence (Q12809 whole entry, looked up): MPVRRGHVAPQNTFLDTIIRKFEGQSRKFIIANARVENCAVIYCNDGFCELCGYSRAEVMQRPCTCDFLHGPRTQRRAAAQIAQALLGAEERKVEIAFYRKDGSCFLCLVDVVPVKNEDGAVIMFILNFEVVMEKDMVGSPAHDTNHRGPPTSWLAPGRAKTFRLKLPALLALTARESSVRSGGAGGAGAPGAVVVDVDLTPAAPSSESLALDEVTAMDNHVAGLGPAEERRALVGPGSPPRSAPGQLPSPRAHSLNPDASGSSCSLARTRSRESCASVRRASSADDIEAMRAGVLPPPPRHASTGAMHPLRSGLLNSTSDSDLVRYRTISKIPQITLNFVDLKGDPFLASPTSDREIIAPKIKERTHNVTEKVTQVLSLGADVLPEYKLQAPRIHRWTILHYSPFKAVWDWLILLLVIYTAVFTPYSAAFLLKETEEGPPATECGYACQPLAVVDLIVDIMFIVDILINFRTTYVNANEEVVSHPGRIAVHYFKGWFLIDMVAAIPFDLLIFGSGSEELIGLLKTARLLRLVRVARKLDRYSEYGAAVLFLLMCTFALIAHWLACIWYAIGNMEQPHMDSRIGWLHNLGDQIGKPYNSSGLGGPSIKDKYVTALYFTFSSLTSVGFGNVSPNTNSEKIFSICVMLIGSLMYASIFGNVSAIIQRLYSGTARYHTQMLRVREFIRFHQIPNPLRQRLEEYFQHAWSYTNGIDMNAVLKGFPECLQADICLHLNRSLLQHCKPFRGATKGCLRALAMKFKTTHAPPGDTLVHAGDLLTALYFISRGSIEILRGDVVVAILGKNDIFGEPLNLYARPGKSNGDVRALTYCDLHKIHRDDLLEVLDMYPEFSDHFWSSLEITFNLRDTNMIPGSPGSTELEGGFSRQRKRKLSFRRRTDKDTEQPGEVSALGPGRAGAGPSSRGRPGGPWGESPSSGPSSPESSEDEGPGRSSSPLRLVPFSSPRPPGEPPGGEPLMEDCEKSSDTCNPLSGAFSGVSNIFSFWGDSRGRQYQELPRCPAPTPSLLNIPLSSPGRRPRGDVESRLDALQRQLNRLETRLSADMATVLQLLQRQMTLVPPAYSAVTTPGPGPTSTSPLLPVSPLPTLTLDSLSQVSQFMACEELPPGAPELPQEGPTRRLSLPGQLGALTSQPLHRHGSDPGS

SMILES	hERG current change (%, negative = inhibition) at 1uM
Cc1ccc(N(Cc2ccccc2)C(=O)c2ccc(F)cc2)cc1	2.45%
CCn1c(SCC(=O)N(C)C2CCS(=O)(=O)C2)nnc1-c1cccs1 (centres unmarked)	9.92%
COCCCNC(=O)c1ccc2c(c1)OCO2	-2.46%
CCOc1ncccc1C(=O)OCC(=O)NC(=O)NC(C)C	16.9%
COc1ccc(-n2ncc3c2CC(C)(C)CC3NC(=O)CCCN2CCCC2=O)cc1 (centres unmarked)	8.36%
Cc1ccc(O)c(-c2cc(C(F)(F)C(F)F)[nH]n2)c1	6.77%
CC1CCN(c2ccc(NC(=S)NC(=O)c3ccc(-c4cccc([N+](=O)[O-])c4)o3)cc2)CC1	3.52%
CN(C)c1ccc(N=Nc2ccccc2C(=O)OCC(=O)N2CCCC2)cc1	18%
CCO/C=C/C(=O)N(C)CCC#N	0.767%
CCC(C)(C(=O)NC1CCCCC1)N(Cc1cccs1)C(=O)c1ccc(=O)[nH]c1 (centres unmarked)	4.66%
O=C(/C=C/NNC(=O)c1cccc(Br)c1)c1ccccc1	13.7%
COc1ccc(Nc2nnc(-c3ccc(C(N)=O)cc3)c3ccccc23)cc1	14.1%
CCC(C)c1ccc(C(C)NC(=S)NC2CCCCC2)cc1 (centres unmarked)	11.3%
Cc1onc(-c2ccccc2)c1C(=O)Nc1nnc(COc2ccc(Cl)cc2)s1	15.7%
Cc1cccc2cc3c(NC(=O)C(C)(C)C)nn(CC(C)C)c3nc12	21.5%
CCC(=O)c1ccccc1OCCCN1C(=O)NC(C)(C)C1=O	1.4%
COc1cc(C(=O)c2ccccc2)c([N+](=O)[O-])cc1OC	11.6%
O=C(CSc1cccc(C(F)(F)F)c1)Nc1cc(S(=O)(=O)N2CCCC2)ccc1Cl	4.42%
CCOC(=O)c1[nH]c2ccc(C)cc2c1NC(=O)CN1CCCCC1	1.71%
CCN(CC)c1ccc(N)cc1	12.8%
CCOC(=O)C1CCN(C(=O)c2ccc(N(C)S(C)(=O)=O)cc2)CC1	0.943%
NC(=O)C1(N2CCCCC2)CCN(C(=O)CSc2nc3ccccc3o2)CC1	2.97%

SMILES	hERG current change (%, negative = inhibition) at 1uM
Cn1c(Cn2c(=O)sc3ccccc32)nnc1SCc1cccnc1	-5.97%
O=C(Cc1ccc(O)cc1)NC1CCCCCC1	15.4%
COc1ccc(N(CC(=O)NCCSc2ccccn2)S(C)(=O)=O)cc1	6.95%
COc1ccc(N2C(=O)CC(NC34CC5CC(CC(C5)C3)C4)C2=O)c(OC)c1 (centres unmarked)	8.85%
COc1ccccc1CC(=O)NCCc1ccc(S(N)(=O)=O)cc1	10.5%
N#CNC(N)=Nc1cccc(Cl)c1	16.4%
NC(N)=N/N=C/c1cccc([N+](=O)[O-])c1O	22.1%
Cc1sc2ncnc(N3CCN(S(=O)(=O)c4ccc(F)cc4)CC3)c2c1C	-2.36%
c1ccc2nc(-c3nc4ccccc4o3)ccc2c1	7.46%
Cc1sc(NC(=O)/C=C/c2ccco2)c(C(=O)OC(C)C)c1C	3.03%
COc1ccc2c(c1)c1nc(SCC(C)C)n(CCO)c(=O)c1n2C	9.29%
CS(=O)(=O)N(Cc1ccc(Cl)cc1)c1ccc(C(=O)NCCSCc2ccco2)cc1	3.78%
CSc1ncccc1C(=O)OCC(=O)N(C)c1c(N)n(Cc2ccccc2)c(=O)[nH]c1=O	-16.3%
CCN1CCN(C(=O)CCc2nnc(CCc3c[nH]c4ccccc34)o2)[C@@H](C)C1=O	-0.692%
O=C(c1ccco1)n1nc(-c2ccc(Cl)cc2)nc1NCc1ccco1	11.8%
O=C1c2cccc3cc(Br)cc(c23)C(=O)N1Nc1ccc(Br)cc1	11.9%
O=C(Nc1cccc2cccnc12)c1ccc(Br)cc1Br	17.3%
CC/C(=N\N1CCCCC1)c1c(O)[nH]c(=O)[nH]c1=O	12.7%
FC(F)(F)c1ccc(N2CCOCC2)c(Nc2nc3ccccc3n3cnnc23)c1	8.14%
Cc1nn(Cc2ccc(F)cc2)c(C)c1NC(=O)c1cc2ncc(Br)cn2n1	10%
O=C(Nc1c(Cl)cccc1Cl)C1CCN(C(=O)c2cccs2)CC1	10.4%
CCc1cccc(CC)c1NC(=O)CCCSc1nc2ccccc2s1	12.6%
